The values below come from PubChem BioAssay AID196 (DTP/NCI, 2004).

Molecules are shown by their SMILES. Inconclusive results and toxic doses are left out. Some entries of the source have several records that differ or are many. The other results are left out here. There may be further records. The values listed for one entry do not match, cause unknown; dose, time, organism, isomer or construct need not be as stated for each record.

In the assay the test system is BDF1 mice, intracerebral B16 melanoma, median survival T/C. Description: NCI In Vivo Anticancer Drug Screen. Data for tumor model B16 Melanoma (intracerebral) in B6D2F1 (BDF1) mice. The settings on record: endpoint: median survival time; dose: 8000.0 mg/kg/injection; schedule: Q01DX005 (ip); vehicle: saline; higher = longer survival. The procedure: The antitumor activity of compounds was measured in mice bearing transplantable tumors. Survival or tumor size were measured and the results are expressed as the measurement made in the treated group (T) divided by the measurement made in the vehicle treated control group (C). The tumor model used in this assay is B16 Melanoma (intracerebral) in B6D2F1 (BDF1) mice

Regarding `CS(C)=O`, the T/C is 100 % of control, 107 % of control, 487 % of control.
